# Laboratory results as given in the supplement of paper PMC8728848.
# The list shows a part of the results.
# B1: GNL (Galanthus nivalis) (protein)
# chain: MGHHHHHHHHYGTLENGHWLMVGMSIFSKDRTVELRMQDDGKLAIYYNDHCAWQSTAQQVNNAKGAVMQGDGNFCIYDKNGKATWHTNTAAPSGDSHTFVSVQDDGNLVLYKNNGATPIWSSKSNK
# Assays:
# Test in all cases: glycan array binding signal (z-score within array); higher = stronger binding
# Settings in all cases: glycan notation: IUPAC condensed, linker removed
# [1] = target: Neu5Ac(a2-6)Gal(b1-4)GlcNAc(b1-2)Man(a1-3)[Man(a1-6)]Man(b1-4)GlcNAc(b1-4)GlcNAc
# Procedure, shortened: (§1)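 The Consortium for Functional Glycomics database supplied 3228 glycan arrays, of which those lacking an available protein sequence were dropped. The binding signal, a within-array Z-score, was averaged across arrays of the same protein sequence and across linkers. Negative scores can be read as non-binding.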
# [2] = target: Neu5Ac(a2-6)Gal(b1-4)GlcNAc(b1-2)Man(a1-3)[Neu5Ac(a2-3)Gal(b1-4)GlcNAc(b1-2)Man(a1-6)]Man(b1-4)GlcNAc(b1-4)GlcNAc
# Procedure, shortened: as §1
# [3] = target: Neu5Ac(a2-6)Gal(b1-4)GlcNAc(b1-2)Man(a1-3)[Neu5Ac(a2-6)Gal(b1-4)GlcNAc(b1-2)Man(a1-6)]Man(b1-4)GlcNAc(b1-4)GlcNAc
# Procedure, shortened: as §1
# [4] = target: Neu5Ac(a2-6)Gal(b1-4)GlcNAc(b1-2)Man(a1-3)[Neu5Ac(a2-6)Gal(b1-4)GlcNAc(b1-2)Man(a1-6)]Man(b1-4)GlcNAc(b1-4)[Fuc(a1-6)]GlcNAc
# Procedure, shortened: as §1
# [5] = target: Neu5Ac(a2-6)Gal(b1-4)GlcNAc(b1-2)Man(a1-6)Man(b1-4)GlcNAc(b1-4)GlcNAc
# Procedure, shortened: as §1
# [6] = target: Neu5Ac(a2-6)Gal(b1-4)GlcNAc(b1-2)Man(a1-6)[Gal(b1-4)GlcNAc(b1-2)Man(a1-3)]Man(b1-4)GlcNAc(b1-4)GlcNAc
# Procedure, shortened: as §1
# [7] = target: Neu5Ac(a2-6)Gal(b1-4)GlcNAc(b1-2)Man(a1-6)[GlcNAc(b1-2)Man(a1-3)]Man(b1-4)GlcNAc(b1-4)GlcNAc
# Procedure, shortened: as §1
# [8] = target: Neu5Ac(a2-6)Gal(b1-4)GlcNAc(b1-2)Man(a1-6)[Man(a1-3)]Man(b1-4)GlcNAc(b1-4)GlcNAc
# Procedure, shortened: as §1
# [9] = target: Neu5Ac(a2-6)Gal(b1-4)GlcNAc(b1-2)[Neu5Ac(a2-6)Gal(b1-4)GlcNAc(b1-4)]Man(a1-3)[GlcNAc(b1-4)][Neu5Ac(a2-6)Gal(b1-4)GlcNAc(b1-2)[Neu5Ac(a2-6)Gal(b1-4)GlcNAc(b1-6)]Man(a1-6)]Man(b1-4)GlcNAc(b1-4)GlcNAc
# Procedure, shortened: as §1
# [10] = target: Neu5Ac(a2-6)Gal(b1-4)GlcNAc(b1-2)[Neu5Ac(a2-6)Gal(b1-4)GlcNAc(b1-4)]Man(a1-3)[GlcNAc(b1-4)][Neu5Ac(a2-6)Gal(b1-4)GlcNAc(b1-4)Man(a1-6)]Man(b1-4)GlcNAc(b1-4)GlcNAc
# Procedure, shortened: as §1
# [11] = target: Neu5Ac(a2-6)Gal(b1-4)GlcNAc(b1-2)[Neu5Ac(a2-6)Gal(b1-4)GlcNAc(b1-6)]Man(a1-6)[Neu5Ac(a2-6)Gal(b1-4)GlcNAc(b1-2)Man(a1-3)][GlcNAc(b1-4)]Man(b1-4)GlcNAc(b1-4)GlcNAc
# Procedure, shortened: as §1
# [12] = target: Neu5Ac(a2-6)Gal(b1-4)GlcNAc(b1-3)Gal(b1-3)GlcNAc
# Procedure, shortened: as §1
# [13] = target: Neu5Ac(a2-6)Gal(b1-4)GlcNAc(b1-3)Gal(b1-4)GlcNAc
# Procedure, shortened: as §1
# [14] = target: Neu5Ac(a2-6)Gal(b1-4)GlcNAc(b1-3)Gal(b1-4)GlcNAc(b1-2)Man(a1-3)[Neu5Ac(a2-6)Gal(b1-4)GlcNAc(b1-3)Gal(b1-4)GlcNAc(b1-2)Man(a1-6)]GalNAc
# Procedure, shortened: as §1
# [15] = target: Neu5Ac(a2-6)Gal(b1-4)GlcNAc(b1-3)Gal(b1-4)GlcNAc(b1-3)Gal(b1-4)GlcNAc
# Procedure, shortened: as §1
# [16] = target: Neu5Ac(a2-6)Gal(b1-4)GlcNAc(b1-3)Gal(b1-4)GlcNAc(b1-3)Gal(b1-4)GlcNAc(b1-2)Man(a1-3)[Neu5Ac(a2-6)Gal(b1-4)GlcNAc(b1-3)Gal(b1-4)GlcNAc(b1-3)Gal(b1-4)GlcNAc(b1-2)Man(a1-6)]GalNAc
# Procedure, shortened: as §1
# [17] = target: Neu5Ac(a2-6)Gal(b1-4)GlcNAc(b1-3)Gal(b1-4)GlcNAc(b1-3)GalNAc
# Procedure, shortened: as §1
# [18] = target: Neu5Ac(a2-6)Gal(b1-4)GlcNAc(b1-3)Gal(b1-4)GlcNAc(b1-3)[Neu5Ac(a2-6)Gal(b1-4)GlcNAc(b1-3)Gal(b1-4)GlcNAc(b1-6)]GalNAc
# Procedure, shortened: as §1
# [19] = target: Neu5Ac(a2-6)Gal(b1-4)GlcNAc(b1-3)Gal(b1-4)GlcNAc(b1-6)[Gal(b1-3)]GalNAc
# Procedure, shortened: as §1
# [20] = target: Neu5Ac(a2-6)Gal(b1-4)GlcNAc(b1-3)Gal(b1-4)[Fuc(a1-3)]GlcNAc(b1-3)Gal(b1-4)[Fuc(a1-3)]GlcNAc
# Procedure, shortened: as §1
# [21] = target: Neu5Ac(a2-6)Gal(b1-4)GlcNAc(b1-3)GalNAc
# Procedure, shortened: as §1
# [22] = target: Neu5Ac(a2-6)Gal(b1-4)GlcNAc(b1-3)[Neu5Ac(a2-6)Gal(b1-4)GlcNAc(b1-6)]GalNAc
# Procedure, shortened: as §1
# [23] = target: Neu5Ac(a2-6)Gal(b1-4)GlcNAc(b1-6)GalNAc
# Procedure, shortened: as §1
# [24] = target: Neu5Ac(a2-6)Gal(b1-4)GlcNAc(b1-6)[Gal(b1-3)GlcNAc(b1-3)]Gal(b1-4)Glc
# Procedure, shortened: as §1
# [25] = target: Neu5Ac(a2-6)Gal(b1-4)GlcNAc(b1-6)[Gal(b1-3)]GalNAc
# Procedure, shortened: as §1
# [26] = target: Neu5Ac(a2-6)Gal(b1-4)GlcNAc6S
# Procedure, shortened: as §1
# Neu5Ac(a2-6)GalNAc = target: Neu5Ac(a2-6)GalNAc
# Procedure, shortened: as §1
# [27] = target: Neu5Ac(a2-6)GalNAc(b1-4)GlcNAc
# Procedure, shortened: as §1
# [28] = target: Neu5Ac(a2-6)GalNAc(b1-4)GlcNAc6S
# Procedure, shortened: as §1
# [29] = target: Neu5Ac(a2-6)GlcNAc(b1-4)GlcNAc
# Procedure, shortened: as §1
# [30] = target: Neu5Ac(a2-6)GlcNAc(b1-4)GlcNAc(b1-4)GlcNAc
# Procedure, shortened: as §1
binder,measurement,setting,value
B1,glycan array binding signal (z-score),[1],5.43
same,glycan array binding signal (z-score),[2],0.179
same,glycan array binding signal (z-score),[3],0.585
same,glycan array binding signal (z-score),[4],1.1
same,glycan array binding signal (z-score),[5],-0.155
same,glycan array binding signal (z-score),[6],2.47
same,glycan array binding signal (z-score),[7],5.03
same,glycan array binding signal (z-score),[8],-0.236
same,glycan array binding signal (z-score),[9],-0.196
same,glycan array binding signal (z-score),[10],-0.237
same,glycan array binding signal (z-score),[11],-0.197
same,glycan array binding signal (z-score),[12],-0.221
same,glycan array binding signal (z-score),[13],-0.274
same,glycan array binding signal (z-score),[14],0.004
same,glycan array binding signal (z-score),[15],-0.282
same,glycan array binding signal (z-score),[16],-0.078
same,glycan array binding signal (z-score),[17],-0.153
same,glycan array binding signal (z-score),[18],-0.208
same,glycan array binding signal (z-score),[19],-0.216
same,glycan array binding signal (z-score),[20],-0.176
same,glycan array binding signal (z-score),[21],-0.274
same,glycan array binding signal (z-score),[22],-0.247
same,glycan array binding signal (z-score),[23],-0.235
same,glycan array binding signal (z-score),[24],-0.28
same,glycan array binding signal (z-score),[25],-0.133
same,glycan array binding signal (z-score),[26],-0.245
same,glycan array binding signal (z-score),Neu5Ac(a2-6)GalNAc,-0.27
same,glycan array binding signal (z-score),[27],-0.307
same,glycan array binding signal (z-score),[28],-0.227
same,glycan array binding signal (z-score),[29],-0.141
same,glycan array binding signal (z-score),[30],-0.29
